Assay results as given in the supplement of paper PMC11417369.
± gives the standard deviation of the averaged measurements. This is one part of the list.

These sequences were tested on PfAP2-G AP2 domain (GST-tagged) (assay: gcPBM binding intensity (ln(normalized median fluorescence intensity)); higher = stronger DNA binding).
Outline: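 Probes on an Agilent 4 × 180k array were primer-extended, double-stranded and 36 bp long, taken from intergenic genomic regions, with negative controls added. GST-tagged P. falciparum DNA-binding domains from E. coli, about 25 μg on average, were applied to the array for 1 h in 1× PBS containing 1% milk, 0.2 mg/ml BSA, 0.5% salmon testes DNA and 0.03% Triton X-100. Binding intensity, obtained after Alexa488 anti-GST antibody detection and a 488 nm scan, is the highest Masliner-normalised natural-log median intensity across replicate spots of either probe orientation.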

| Sequence | gcPBM binding intensity (ln) |
| --- | --- |
| TAAAATTTAAAATATACACACAAAAAGTTATTACAA [CACACA_site4080] | 9.965 ± 0.035 |
| AAATTATTATGAAATGGAAAATGCATAAATTGTTTT [XGTACX_negctrl_site206] | 9.83 ± 0.085 |
| ATTAAATAATAATAATGTACGTATTATATTAATACA [XGTACX_site5439] | 11.3 ± 0.95 |
| AAAACAGTGACAACTCGTACTTATATTTTTTTTTGT [XGTACX_site4968] | 10.9 ± 0.43 |
| AGGCCCTATGTTGTTACACACATAGAATGATACATC [CACACA_site1266] | 9.94 ± 0.014 |
| ACATGGTTTACACGTGCATGTGGATGACTGGACATT [TGCATGCA_site640] | 10.4 ± 0.18 |
| TATATTTATTTATATGTATGCATGTCTGTATATGCT [TGCATGCA_site339] | 9.535 ± 0.078 |
| CAAAGATAAAATGATGCACACAAAAGGGTGTAATAT [CACACA_site8499] | 10.25 ± 0.014 |
| AAAGTACAATCATAATCACACGTGTCTATTATATAC [CACACA_site8103] | 10.8 ± 0.59 |
| AAATTACTAATGTGCACACATACTAACGTTTAAATA [CACACA_site3572] | 10.6 ± 0.4 |
| AAAAATGTAAAGTGCGTGCACAAAATATTTGGAAAA | 10.5 ± 0.3 |
| AATACGACAAACAAATGTACAAATAAATATTCGCGT [XGTACX_site6427] | 11 ± 0.63 |
| TGAGAAAATTAAAAGGTGCTCAGAAATTTTATATTA [GTGCAC_site9954] | 9.76 ± 0.16 |
| TTTTCTTTTAATATTTTTAATAATTATATTTTGAAA [XGTACX_negctrl_site495] | 9.39 ± 0.16 |
| CATATATTTTGAAACACACACATATAAAATATACAT [CACACA_site6664] | 10.19 ± 0.014 |
| AAGTATTTCCTAAAATGTACATATAAATAAGTATAT [XGTACX_site1282] | 11.2 ± 0.51 |
| AAATCTTAATAAAGTTGTACATAATTATGTTTAATA [XGTACX_site3348] | 11.3 ± 0.78 |
| TCTTACAAGGAACTAATAAAATTGTAGTTTGTATTT [CACACA_negctrl_site386] | 9.68 ± 0.15 |
| TTAAAATTAAAATACGTACACACCTTATCTTTTTGG [CACACA_site7982] | 11.6 ± 0.81 |
| GAAAAGATTTAAAAATGTACAAAAGAAAAAAAAAAA [XGTACX_site6916] | 10.7 ± 0.38 |
| TATATTTAAATATATACACACATTATCATTTTCATA [CACACA_site1708] | 9.98 ± 0.15 |
| TGGTTATAATTGTACGCATGTAATTACATATTCTCT [TGCATGCA_site599] | 11.5 ± 0.85 |

| Sequence | gcPBM binding intensity (ln) |
| --- | --- |
| AATATGCCTCCCCAAAAAAAATATATATATATTTAT [GTGCAC_negctrl_site716] | 10.185 ± 0.007 |
| AAATATGTTTCAAAAAGTACATTTCTATCTTTTTTT [XGTACX_site7178] | 11.1 ± 0.69 |
| TGATAAAATATTAAATTATTTCTTTATTTAAAGATT [CACACA_negctrl_site370] | 9.35 ± 0.13 |
| TTTTTTACTATATCAATTACAAAACAAAAAAAAAAA [GTGCAC_negctrl_site683] | 9.86 ± 0.34 |
| TATCATTTGGTCTTTTACTTTTTCTGTTTTTTTTTT [CACACA_negctrl_site976] | 10.31 ± 0.042 |
| AATGATTGATTTTATTGTACGTACTCGGAATATGGT [XGTACX_site4976] | 11.8 ± 1 |
| TATAGATAAATTATTTGTACTTATAAAATTATTATA [XGTACX_site2870] | 11 ± 0.8 |
| TAGTTTTCTTAAAGATGTACTTATTAAAAATAAACT [XGTACX_site1001] | 11.3 ± 1.1 |
| GAATTTTAAATAAACATATAAACAGAAAAAAAAAAA [TGCATGCA_negctrl_site149] | 9.84 ± 0.028 |
| GTTATATTTAAAATAGTGCAATAAAAATAATAATAT | 10.3 ± 0.26 |
| CCTTTATAATTGGAAACACACATATAAAGTATATAT [CACACA_site3900] | 10.04 ± 0.049 |
| CACAAATATACAAATACACACAAATATACGCATATA [CACACA_site2384] | 10.15 ± 0.021 |
| TTATGTATTTTAAATGGTTTTATTATAAAGTTTAAT [CACACA_negctrl_site1470] | 9.865 ± 0.007 |
| TTATCTTACATATATCATTAAATCATATAACAAAAA [XGTACX_negctrl_site517] | 9.68 ± 0.042 |
| AACCTCATGGACATATGTACACATATACAATTATTT [XGTACX_site6533] | 11.4 ± 0.77 |
| AAATATACATATATATGTACATATAAATATATTTTA [XGTACX_site5266] | 11.1 ± 0.69 |
| TACATAACTTTAATCACACACAAACAAACACATACA [CACACA_site6235] | 10.3 ± 0.38 |
| ATATAATATATATACAAACACACAATTGTGTCCACA [CACACA_site1748] | 11.1 ± 0.73 |
| AAAATACATGGACACACACACACACCGATATATATA [CACACA_site5885] | 11 ± 0.68 |
| GGATAGATCATTTACACACACAAAAAAAAAAAAAAA [CACACA_site2139] | 9.97 ± 0.51 |
| ATAATATATTATTATAGTACTTTATTTTATTTTATG [XGTACX_site2387] | 11.1 ± 0.64 |
| AATATATATATACATACATGCATACATATATATATA [TGCATGCA_site784] | 10.1 ± 0.49 |

| Sequence | gcPBM binding intensity (ln) |
| --- | --- |
| CAAATATATGTTTTCACACACAAAAGAAATGAAACC [CACACA_site2162] | 10.12 ± 0.035 |
| AAAAAAAATAAAATGAATAAATAAGAATTACATATT [CACACA_negctrl_site863] | 9.41 ± 0.35 |
| TAAGGAAAAAGAAAAAGTACATTATATAATAAATAG [XGTACX_site3282] | 11.2 ± 0.83 |
| AAAAAGAAGATATATACACACCAAAAAAAAAAAAAA [CACACA_site7471] | 9.77 ± 0.3 |
| GTTTATAACTATGTGTGTACACATTAATCGTTTTTC [XGTACX_site4364] | 11.6 ± 1 |
| ATATGATGTAAAAGCACACATATATATATATATATA [CACACA_site4018] | 10.1 ± 0.35 |
| TACTATAAAATGGAATGTACACATAAATATATCTAA [XGTACX_site6137] | 11.3 ± 0.72 |
| AAATCGTGTACATTGACACACATAATTTTTTTTATA [CACACA_site2463] | 11.3 ± 0.83 |
| CACATACACATACACATACACACGCATAGAAACATA [CACACA_site2136] | 10.5 ± 0.28 |
| TTGTATAAATATGTATGTATATAATATATGTAAAGA [TGCATGCA_negctrl_site93] | 10.02 ± 0.092 |
| TATTAATTTTTATTATGTACATAAATAATTTATATT [XGTACX_site5456] | 11.3 ± 0.74 |
| AATATATTTATATAGTGTACATTTTTTATATATGTA [XGTACX_site8142] | 11.3 ± 0.78 |
| ATATAACGAATAATTACACACTATAAAAAAAGATCT [CACACA_site2862] | 9.82 ± 0.057 |
| TATAACCGAATGTGTACACAAAATAATGTTATATAT [CACACA_site5627] | 11.6 ± 0.88 |
| ATAATACGAATTTGTAGTACATTTATAATAACATGA [XGTACX_site2614] | 11.4 ± 0.83 |
| AAGCATATTATAAACACACACTGTATAAAGATATAT [CACACA_site6277] | 9.91 |
| AAGTATAACCTTTATAATAATGACATGACCGATTTT [CACACA_negctrl_site395] | 10.07 ± 0.028 |
| ACCCATAAGATAATTACACACAATACATCCCTATAT [CACACA_site5262] | 10 ± 0.028 |
| TTTTTTTTTTTTTGTTGTACATTAAATATATTATTA [XGTACX_site7254] | 11.2 ± 0.86 |
| TAAAAAACTTCGTGTTCACACATGTACTATATTATT [CACACA_site4796] | 11.2 ± 0.89 |
| AGGACTAATATTTGAACACACATATAACATATACAT [CACACA_site7803] | 9.95 ± 0.085 |
| TTTTAATAACCAATCCGTACATATAATCTTTATATT [XGTACX_site536] | 11 ± 0.61 |

| Sequence | gcPBM binding intensity (ln) |
| --- | --- |
| TGGAAAAATAGGCACACACACATATATACATATATA [CACACA_site1297] | 10.2 ± 0.23 |
| TAAAAGTTATAAGAGTGTACGTATATTTATATATCA [XGTACX_site2972] | 11.5 ± 1 |
| TTATTATATTCTCCTTCACACACAAAAATATTTCAT [CACACA_site8738] | 10.2 ± 0.14 |
| TGAAAAATTACAAAAATAATAAAATGAAATAATAAA [GTGCAC_negctrl_site53] | 9.81 ± 0.085 |
| TACTGTTTAAAATATAAACACACATTGTTTGCTTTA [CACACA_site8358] | 9.61 ± 0.38 |
| AAAAGGAAAATTTTCTTAGTAACTGCATTAAGAGAT [GTGCAC_negctrl_site675] | 9.85 ± 0.2 |
| CTTTTAAATTATTTTTGTACATAATTATATATATAT [XGTACX_site4128] | 10.9 ± 0.49 |
| AACTATAAATATAAATGTACACATATGTAATATATA [XGTACX_site6085] | 11.3 ± 0.64 |
| TTTATTATTTTTTGTAGTACTTTATATAAAAGTTCT [XGTACX_site4494] | 11.3 ± 0.77 |
| ATACACTTTTATATATCAATACATTATGTATTAAGT [CACACA_negctrl_site421] | 10 ± 0.11 |
| TATTTACATGTAAAAGGTACACACATTATATATACA [XGTACX_site2157] | 11.2 ± 0.57 |
| TAAAATAAAACAAACACACACACACCCCCACAAAAA [CACACA_site3850] | 11.3 ± 0.7 |
| ATGTATATATATATATGTACTAATTAGTAATTTACG [XGTACX_site6276] | 11 ± 0.62 |
| AAAACAAACCCATTTACACACATAAATAAATCAATT [CACACA_site6126] | 9.97 ± 0.028 |
| TCCTTTTTTTTGTAATGTACTTAGTTTGGTTATATG [XGTACX_site8208] | 11 ± 0.55 |
| CCTCTTTATTTTAATTGTACATTTTTGTAGGTTTTT [XGTACX_site7130] | 10.9 ± 0.61 |
| TTTTTATTACTTCTCTGTACTCAGGAAAATAAATAT [XGTACX_site2092] | 11.4 ± 0.99 |
| TGAATGTAAGAAAATACACACTAGTATAGTAACACC [CACACA_site5131] | 10.2 ± 0.52 |
| AAATATATAATACATATGTAATATGCATATATATAT [GTGCAC_negctrl_site450] | 9.68 ± 0.26 |
| TTGATTATAATTAGTACACACAAAATACATGCGGGG [CACACA_site2277] | 11.6 ± 0.9 |
| AATATTCATATGCAGGTGCATTAATTTTTATTAATT | 9.795 ± 0.078 |
| TTCCAACCATAGTATTCACACATTGTTTTATTCCAT [CACACA_site4927] | 10.03 ± 0.049 |
